Here are results for 30 compounds from the antibiotic and cytotoxicity screens of Wong et al. (2023).

The list shows a part of the results.

One assay relates to HSkMC. The assay is described as follows: cytotoxicity call (relative viability < 0.9). To be noted: 10 µM.
Another assay deals with S. aureus RN4220. The assay is described as follows: growth inhibition call (relative growth <= 0.2). The following applies: 50 µM.

On to `Cc1noc(C)c1S(=O)(=O)N(C)C[C@@H]1Oc2ccc(NC(=O)NC(C)C)cc2CC(=O)N([C@@H](C)CO)C[C@H]1C`, for which, in the assay on HSkMC, the cytotoxicity call was “inactive”. Moreover, in the assay with S. aureus RN4220, the growth inhibition call was “inactive”.
`C[C@@H]1CN([C@H](C)CO)C(=O)c2cc(NC(=O)Nc3ccccc3)ccc2O[C@@H]1CN(C)CC1CCCCC1`: in the assay with HSkMC, the cytotoxicity call was “inactive”. Further, the growth inhibition call in the assay on S. aureus RN4220 is “inactive”.
Turning to `N[C@H]1CCC[C@@H]1Cc1ccc(F)cc1`, the cytotoxicity call in the assay with HSkMC is “inactive”. In the assay on S. aureus RN4220, the growth inhibition call was “inactive”.
Consider `O=C(C=Cc1ccc(O)cc1)c1ccccc1O`, for which, in the assay with HSkMC, the cytotoxicity call was “inactive”. In addition, the growth inhibition call in the assay on S. aureus RN4220 is “inactive”.
With `C[C@@H]1CN([C@H](C)CO)C(=O)c2cccc(NC(=O)Nc3ccccc3)c2O[C@@H]1CN(C)CC1CCCCC1`, the cytotoxicity call with HSkMC was “inactive”. Further, the growth inhibition call in the assay on S. aureus RN4220 was “inactive”.
In the case of `Cc1ccc(S(=O)(=O)Nc2ccc3c(c2)CC(=O)N([C@H](C)CO)C[C@H](C)[C@@H](CN(C)S(=O)(=O)c2c(C)noc2C)O3)cc1`, the cytotoxicity call in the assay with HSkMC is “inactive”. The growth inhibition call with S. aureus RN4220 is “inactive”.
With `C[C@@H]1CN([C@@H](C)CO)C(=O)c2cc(NC(=O)C3CC3)ccc2O[C@H]1CN(C)Cc1ccc(Oc2ccccc2)cc1`, the cytotoxicity call with HSkMC is “inactive”. Moreover, the growth inhibition call in the assay on S. aureus RN4220 is “inactive”.
Consider `C[C@@H]1CCCCO[C@@H](CN(C)CC2CCCCC2)[C@H](C)CN([C@H](C)CO)C(=O)c2cc(NC(=O)c3ccccc3)ccc2O1`, for which the cytotoxicity call in the assay on HSkMC is “inactive”. Moreover, the growth inhibition call in the assay on S. aureus RN4220 was “inactive”.
Regarding `C[C@@H]1CCCCO[C@@H](CN(C)C(=O)CCC(F)(F)F)[C@H](C)CN([C@H](C)CO)C(=O)c2cc(NC(=O)NC3CCCCC3)ccc2O1`, in the assay on HSkMC, the cytotoxicity call was “inactive”. Moreover, the growth inhibition call with S. aureus RN4220 was “inactive”.
Take `C[C@@H]1CCCCO[C@@H](CN(C)C(=O)Nc2cccc3ccccc23)[C@H](C)CN([C@@H](C)CO)C(=O)c2cc(NS(=O)(=O)c3ccc(Cl)cc3)ccc2O1`: in the assay with HSkMC, the cytotoxicity call is “inactive”. Further, the growth inhibition call with S. aureus RN4220 is “inactive”.
With `Cn1c(=O)cc(N2CCC[C@@H](N)C2)n(Cc2ccccc2C#N)c1=O`, in the assay with HSkMC, the cytotoxicity call is “inactive”. For the same compound, in the assay with S. aureus RN4220, the growth inhibition call is “inactive”.
Regarding `C[C@H](NC(=O)C[C@H]1C[C@@H]2c3cc(NC(=O)Nc4ccc(C(F)(F)F)cc4)ccc3O[C@@H]2[C@@H](CO)O1)c1ccccc1`, in the assay on HSkMC, the cytotoxicity call is “inactive”. Further, in the assay on S. aureus RN4220, the growth inhibition call was “inactive”.
In the case of `Cc1ccc(S(=O)(=O)Nc2ccc3c(c2)C(=O)N([C@@H](C)CO)C[C@H](C)[C@@H](CN(C)Cc2ccc(-c4ccccc4)cc2)O3)cc1`, the cytotoxicity call in the assay on HSkMC was “inactive”. In the assay on S. aureus RN4220, the growth inhibition call was “inactive”.
`CCOC(=O)c1ccc(N2NC(=O)/C(=C/c3ccc([N+](=O)[O-])o3)C2=O)cc1`: the cytotoxicity call in the assay on HSkMC is “inactive”. The growth inhibition call in the assay with S. aureus RN4220 was “inactive”.
Take `C[C@@H]1CCCCO[C@@H](CN(C)Cc2ccc3c(c2)OCO3)[C@@H](C)CN([C@H](C)CO)C(=O)c2cc(NC(=O)Nc3ccc4c(c3)OCO4)ccc2O1`: the cytotoxicity call with HSkMC is “inactive”. For the same compound, in the assay on S. aureus RN4220, the growth inhibition call is “inactive”.
As for `CCSC(=O)NC1CCCCC1`, in the assay with HSkMC, the cytotoxicity call was “inactive”. Moreover, the growth inhibition call in the assay with S. aureus RN4220 is “inactive”.
As to `CC(C)c1c(O)ccc2c1CCC1C(C)(C)CCCC21C` (stereo not given), the cytotoxicity call with HSkMC is “inactive”. Moreover, the growth inhibition call in the assay on S. aureus RN4220 is “inactive”.
Turning to `CCCC[P+](CCCC)(CCCC)Cc1ccc(NC(=O)[C@H](Cc2ccc3ccccc3c2)N/C(=N/C2CCCCC2)NC2CCCCC2)cc1`, in the assay on HSkMC, the cytotoxicity call is “inactive”. The growth inhibition call in the assay on S. aureus RN4220 was “active”.
With `Cc1ccc(S(=O)(=O)Nc2cccc3c2O[C@@H](CN(C)S(=O)(=O)c2ccc(F)cc2)[C@@H](C)CN([C@H](C)CO)C3=O)cc1`, the cytotoxicity call in the assay on HSkMC is “inactive”. The growth inhibition call with S. aureus RN4220 was “inactive”.
As for `COc1ccc(CN(C)C[C@H]2Oc3ccc(NC(=O)Nc4ccc(C(F)(F)F)cc4)cc3C(=O)N([C@H](C)CO)C[C@@H]2C)cc1`, the cytotoxicity call in the assay with HSkMC was “inactive”. For the same compound, the growth inhibition call in the assay on S. aureus RN4220 was “inactive”.
With `Cc1c(C(N)=O)nnn1-c1ccc(F)cc1`, the cytotoxicity call in the assay on HSkMC is “inactive”. Also, the growth inhibition call with S. aureus RN4220 was “inactive”.
Turning to `CC(=O)N[C@@H](Cc1ccccc1)C(=O)O`, the cytotoxicity call with HSkMC is “inactive”. In addition, the growth inhibition call in the assay on S. aureus RN4220 is “inactive”.
With `C[C@H]1CN([C@@H](C)CO)S(=O)(=O)c2ccc(-c3cccc(F)c3)cc2O[C@H]1CN(C)S(C)(=O)=O`, the cytotoxicity call in the assay with HSkMC was “inactive”. Also, the growth inhibition call with S. aureus RN4220 is “inactive”.
Take `CCC(=O)NCc1nccc(N(C)C)n1`: the cytotoxicity call with HSkMC was “inactive”. Further, the growth inhibition call in the assay on S. aureus RN4220 was “inactive”.
Regarding `C[C@@H]1CN([C@@H](C)CO)C(=O)c2cc(NC(=O)CCC(F)(F)F)ccc2O[C@@H](C)CCCCO[C@H]1CN(C)S(=O)(=O)c1ccc(Cl)cc1`, the cytotoxicity call with HSkMC was “inactive”. Moreover, the growth inhibition call in the assay with S. aureus RN4220 is “inactive”.
For `O=C1c2ccccc2[C@](Cc2ccccc2I)(C(=O)NCc2ccccc2)[C@H](c2ccc(CO)cc2)N1C1CCCCC1`, the cytotoxicity call in the assay with HSkMC was “inactive”. For the same compound, the growth inhibition call with S. aureus RN4220 is “inactive”.
For `COc1ccc(NC(=O)Nc2ccc3c(c2)CC(=O)N([C@@H](C)CO)C[C@@H](C)[C@H](CN(C)S(=O)(=O)c2cn(C)cn2)O3)cc1`, the cytotoxicity call with HSkMC is “inactive”. Also, the growth inhibition call with S. aureus RN4220 was “inactive”.
In the case of `CC1(C)C=Cc2c(c3c(c4c(=O)c(-c5ccc(O)cc5)coc24)OC(C)(C)CC3)O1`, the cytotoxicity call in the assay with HSkMC is “inactive”. The growth inhibition call in the assay on S. aureus RN4220 is “inactive”.
As to `COc1nc(C#N)nc(N2CCCCC2)n1`, the cytotoxicity call in the assay on HSkMC was “inactive”. In the assay on S. aureus RN4220, the growth inhibition call is “inactive”.
On to `C[C@@H]1CCCCO[C@@H](CN(C)C(=O)Cc2ccccc2)[C@@H](C)CN([C@H](C)CO)C(=O)c2cc(NC(=O)Nc3ccc4c(c3)OCO4)ccc2O1`, for which, in the assay on HSkMC (human skeletal muscle cells), the cytotoxicity call is “inactive”. The growth inhibition call in the assay with S. aureus RN4220 is “inactive”.
